# The list shows a part of the results. The energies were worked out here from pooled read counts, against the library average; single values are noisy.
# Target: T1, Pho4 (S. cerevisiae) (UniProt P07270)
# T1 sequence: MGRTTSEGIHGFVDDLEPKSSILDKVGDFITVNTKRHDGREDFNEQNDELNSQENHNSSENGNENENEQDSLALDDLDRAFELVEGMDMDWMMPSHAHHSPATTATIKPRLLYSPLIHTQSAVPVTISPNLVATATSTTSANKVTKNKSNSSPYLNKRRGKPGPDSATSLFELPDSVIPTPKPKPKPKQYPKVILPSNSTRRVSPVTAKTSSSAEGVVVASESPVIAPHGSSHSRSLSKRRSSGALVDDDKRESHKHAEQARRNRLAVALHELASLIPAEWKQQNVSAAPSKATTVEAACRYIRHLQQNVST
# Test: relative binding free energy (BET-seq); higher = weaker binding
# Conditions: reference: library average
row,Sequence,relative binding free energy [kJ/mol]
1,TTGGGCACGTGGGACA,-0.711
2,TTTCTCACGTGTCTTG,1.17
3,CTGATCACGTGTAATG,1
4,TGCATCACGTGTGTCG,0.377
5,GCGGACACGTGCGGTG,-0.377
6,ATGGTCACGTGTGAAA,-0.0837
7,ATGTTCACGTGACGTG,1.05
8,GTTTTCACGTGCGGGA,1.34
9,TATGACACGTGATTTG,0.628
10,TCTGCCACGTGGGGTG,-1.38
11,TACTTCACGTGTGTAT,0.795
12,AAAGTCACGTGTAAAT,1.34
13,TTATCCACGTGGTAGG,-0.711
14,TTGGGCACGTGTGGGT,0.251
15,ATGGGCACGTGGAATA,-0.0837
16,ATGGACACGTGTAGGC,0.502
17,CTTTTCACGTGTGAAA,1.3
18,GGAAGCACGTGCAGGG,-0.544
19,GGGAGCACGTGGAGTC,-0.335
20,TTTTCCACGTGTGGGG,0.92
21,TGTTACACGTGTGTTA,0.544
22,TGCGTCACGTGTTGTG,0.209
23,ACGGTCACGTGTGAGG,1.13

row,Sequence,relative binding free energy [kJ/mol]
1,TTAGACACGTGCGGAG,1.09
2,GTTTACACGTGCGCGG,-0.209
3,AGCGTCACGTGAGTTT,1.21
4,GTATGCACGTGCTGTG,0
5,CTTGTCACGTGTTAGG,0.46
6,GTTTGCACGTGTACTG,0.293
7,AAAGTCACGTGCTGGG,-0.126
8,CTGAGCACGTGGGATG,-1
9,TATTGCACGTGAACAT,1.09
10,GGAGACACGTGGGAGG,-0.251
11,GGGGTCACGTGTTTGA,0.669
12,GTGAACACGTGAGTTG,1.26
13,CGTCGCACGTGTTTGG,0.293
14,TATTTCACGTGGGCAA,0.377
15,AGTTACACGTGATCGT,0.711
16,TTTCTCACGTGATGTG,1.05
17,CCTGTCACGTGGAGGG,0.544
18,TGCTGCACGTGAATTG,0.962
19,ATGGTCACGTGACGGT,1.34
20,AGATTCACGTGTGTTT,1.46
21,CATATCACGTGGTGTA,-0.167
22,TAGTTCACGTGTGGGT,1.42
23,GGCCGCACGTGGTGTG,-0.962

row,Sequence,relative binding free energy [kJ/mol]
1,TGCGTCACGTGGGTAG,-0.377
2,TAGGGCACGTGGGATC,-0.502
3,GTACACACGTGTTATG,0.209
4,GAGGGCACGTGTGCGA,-0.293
5,GATTACACGTGTAGGT,0.46
6,CTGAGCACGTGGGGCT,-0.418
7,TGCTTCACGTGGAATG,1.17
8,GGGGGCACGTGGAAGT,0.46
9,CTGGTCACGTGTTTTA,0.0837
10,TATTGCACGTGATTTT,0.46
11,CTATTCACGTGGTGTA,0.711
12,GTCGCCACGTGTAGGT,-0.377
13,GCGTGCACGTGGGTGG,-0.795
14,GTCGGCACGTGGTGGA,-0.46
15,TGGGGCACGTGATAAC,-0.126
16,CGAGGCACGTGGTCGT,-0.962
17,ATATACACGTGTGTCA,0.46
18,TTTGGCACGTGAATCT,0.251
19,TGTTACACGTGCCGGT,0.377
20,ATGTCCACGTGGATAG,0.293
21,ATGTTCACGTGAGAGG,1.59
22,TGGGGCACGTGAAAGT,0.669
23,CTTGGCACGTGTAGCT,0.753

row,Sequence,relative binding free energy [kJ/mol]
1,TGATACACGTGGATAG,0.126
2,AAAGTCACGTGGTTGT,0.377
3,TCAAGCACGTGGGTTG,-0.92
4,TAGGGCACGTGTGTTC,-0.46
5,GTGGACACGTGCAGGG,0.418
6,GCAGTCACGTGTATGG,0.837
7,GTATTCACGTGATATA,1.05
8,TAATACACGTGTGCGA,0.628
9,TAGGACACGTGTCATT,0.669
10,AAAGTCACGTGGGTGG,0.251
11,ATGATCACGTGGGCAG,0.167
12,ACAGTCACGTGGGGAT,-0.209
13,CGCGCCACGTGTGGGT,-0.251
14,ACAATCACGTGGGTTT,0.46
15,AATCGCACGTGTAAGG,0.209
16,AACAGCACGTGTGTTT,0.335
17,GTGAACACGTGATGGC,1.09
18,CTCTGCACGTGTGGTT,0.335
19,TAAGTCACGTGAGATT,1.17
20,GTCTGCACGTGGGCGA,-0.502
21,AGCGGCACGTGTGTGT,-0.335
22,GCAGGCACGTGGCGTT,-0.628
23,ATGTTCACGTGGGAGT,0.628

row,Sequence,relative binding free energy [kJ/mol]
1,TAACGCACGTGATGGG,0.209
2,GTTGTCACGTGAACTA,2.22
3,TCTTACACGTGTGTGG,0.502
4,ATAAGCACGTGATGCG,-0.209
5,CGGGGCACGTGGGACG,-0.753
6,AGTGACACGTGATGGT,0.669
7,TTAGTCACGTGTCTGC,0.293
8,ATTGCCACGTGGTGGG,-0.544
9,GGTCGCACGTGGAGTC,0.46
10,AGAGTCACGTGGTGAG,0.377
11,ACGATCACGTGGATGT,0.837
12,CCAGTCACGTGGGTGT,-0.586
13,GCTGTCACGTGTGTAG,1.05
14,AAAAACACGTGGAGGG,0.126
15,TAAGGCACGTGAGCTG,0.126
16,TTTGTCACGTGTGAGC,0.586
17,GGGTGCACGTGCACGG,-0.544
18,TATAGCACGTGTTCTG,-0.795
19,AAAATCACGTGTATTG,0.962
20,GTTGACACGTGTGATT,1.38
21,CAGCACACGTGGGGGG,-0.586
22,TTGGTCACGTGAGGTC,1.59
23,AGGTGCACGTGTACTT,-0.0837

# — the BET-seq Pho4 binding data (Le et al. 2018)
